The chains are these.
T1: UNK ZnF1-3 (human, UniProt Q9C0B0 31-174)
T1 sequence: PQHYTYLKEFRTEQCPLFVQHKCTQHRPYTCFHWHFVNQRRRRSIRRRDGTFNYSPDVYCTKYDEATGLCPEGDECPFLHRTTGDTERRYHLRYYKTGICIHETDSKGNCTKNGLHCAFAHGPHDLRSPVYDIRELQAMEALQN

B1: chr3:10015032:10015033:+_ENSMUSG00000027533_ENSMUST00000029046|mus_mus|mus_mus_mus_hu_True|18_18 (ssRNA)
RNA: GGGAGUUCUACAGUCCGACGAUCGUUUUUACCAUCACAAGUGAUGAUACAAUCUGGCUUGGCCAUUGCGCCCAUUUUUCGCAAAGCUAUUCCCACUCCUAGCUCCUUCAUGUAUUCCUCAAAGCCGUUGCUGUCCACCAGGCGCAACAGAGGAUUGAGCAUCA
B2: chr12:42180722:42180723:-_ENSMUSG00000036295_ENSMUST00000043884|mus_mus|FALSE|FALSE (ssRNA)
RNA: GGGAGUUCUACAGUCCGACGAUCCUGUAGGAGCAGAAUCUGUGUGUCGGCAGGCAAUCUGGCUGGGAAGUUUAAAAGCCCUAAAUCAUUACAGUCCACUGUCGAUGCUUCCAUAUAGAUGGAUCUCGGGGUAAACCAAGGCCUCAACAGAGGAUUGAGCAUCA
B3: chr1:173932209:173932210:-_ENSMUSG00000026556_ENSMUST00000027837|mus_mus|FALSE|FALSE (ssRNA)
RNA: GGGAGUUCUACAGUCCGACGAUCACAACUUCCCAUUCUGGAGAAGCAAAAGACACACACACACACACACACACACACACACACACACACACACACACCUCGCACACACAGAGCCAUACAUUUGACAAUUCAUCCUGACAUCUUCAACAGAGGAUUGAGCAUCA
B4: chr8:95500983:95500984:-_ENSG00000164944_ENST00000437199|hu_hu|hu_hu_hu_mus_True|38_78 (ssRNA)
RNA: GGGAGUUCUACAGUCCGACGAUCAGAACACAUCUAUCGAGUAAAGGACCGUACAUGGACGACCUCUCCACUGCCUCCACUAACAAACUUUCCUCUCUGAGCCUCCAUGCCGCUAUUUGUACUAGCCCAGGACGGUCCCAGGCCCAACAGAGGAUUGAGCAUCA
B5: chr4:124323543:124323544:+_ENSG00000164056_ENST00000339241|hu_hu|FALSE|FALSE (ssRNA)
RNA: GGGAGUUCUACAGUCCGACGAUCCCUCCUGCACAGCUUCAGGCAUCCUUUAGCAGGAGGAUAACAGAGUAAGCAAGGUAAAAAUAAAGACAUGGCUCCCAUACACAGGUAUCUAGAGCAGCAGUGUGAUUGUGAACAGGAGCACAACAGAGGAUUGAGCAUCA
B6: chr15:85259290:85259291:-_ENSG00000140612_ENST00000559729|hu_hu|FALSE|FALSE (ssRNA)
RNA: GGGAGUUCUACAGUCCGACGAUCAUUUAGGACUUGAUAAUAGAGCUGCCGCUUGUUCAUCCGCCGCACAUCGUCCAAAAAGUCUAGAGACAGCAUGGCGGGGACGGCGAGCAGGACACCGGCAGGGGAAAGGGCGCGAUGACCCAACAGAGGAUUGAGCAUCA
B7: chr12:48459454:48459455:-_ENSG00000079387_ENST00000551330|hu_hu|FALSE|FALSE (ssRNA)
RNA: GGGAGUUCUACAGUCCGACGAUCUGCCUUCUGUUCUUCAAUCUGGCGCAAUCUUUCUCGUGCUCGAGAAUCAUAAACACUAGUUAAUUCUUUGAUCCACAGCUCUGCCUGGAAGAAAGUAGAACUGGGAGUUGGAGUCUGGGACAACAGAGGAUUGAGCAUCA
B8: chr2:150438701:150438702:-_ENSG00000168288_ENST00000303319|hu_hu|motif|central (ssRNA)
RNA: GGGAGUUCUACAGUCCGACGAUCAUCCGAACCUGAUGAUCCUGCAGUCGAAAAGGCUUUGGGAUUGACAACCCUUUUAACGGAAGAGCAAAAUCCUGGGAGAUAGGAAACCAGUCUGGCUCUGUUACAAAGCACAUUGGCCAUCAACAGAGGAUUGAGCAUCA
B9: chr3:101378695:101378696:-_ENSG00000066422_ENST00000312938|hu_mus|FALSE|FALSE (ssRNA)
RNA: GGGAGUUCUACAGUCCGACGAUCCGGCUUUACACCCGUGUGCUUUAGCAUAUGUAUGCGGAGAGAGUAUAAUUUAGGUAAUGUCCUUCCACAUAUAGAACAUAUAAAUUCUCUUUUGGUUCUUCCCUUCUCAGAUGAUCCUCCCAACAGAGGAUUGAGCAUCA
B10: chrX:17818885:17818886:+_ENSMUSG00000037369_ENSMUST00000044484|mus_hu|FALSE|FALSE (ssRNA)
RNA: GGGAGUUCUACAGUCCGACGAUCAUACCAGGACUGGCCAGAAUUAGGAUCUGCUUCCAAGGACUUUUGGAGAUACUGAAUAGCAUAGCUUUCCUUGGUGGCUUUAUCUCCCAGGAGAUCUACAGUGUGAUGCAUCCAACCUAACAACAGAGGAUUGAGCAUCA
B11: chr10:17279496:17279497:+_ENSG00000026025_ENST00000224237|hu_mus|FALSE|FALSE (ssRNA)
RNA: GGGAGUUCUACAGUCCGACGAUCUUUAAUGGUAUUCAAAAAUACUUUAAAAAGUAUUCUAGCACAAGAUUUCUUCGUAAACUAGAUUAUUUUGUAAACCUUUUCUACGUCUUUUGGGGUGUCAGUUGUUAAGUGCUGAGCUUCCAACAGAGGAUUGAGCAUCA
B12: 65116393_65119264_1212_3pUTR_ENSG00000133884_ENST00000252268|human|control|control (ssRNA)
RNA: GGGAGUUCUACAGUCCGACGAUCCUUAGAUAUGUCGGGGAGCAGGUGGGUGGCCACAUCAAGAGGAGUUCUGGUUCUGGUAGAUGGAAGCUUUCUCUUUCAACAGGUCCAGACACAGGUGGCAGCUCCAACUUCCUUCAGGGGCAACAGAGGAUUGAGCAUCA
B13: chr17:39846101:39846102:+_ENSG00000173812_ENST00000591776|hu_hu|FALSE|FALSE (ssRNA)
RNA: GGGAGUUCUACAGUCCGACGAUCAUCAUCAGCGAUCCCUUGGACAGUAGUAAGGGUCUUCCUGCCGUUUCUCUGUUGAAUUCUUAUAUGGAUAUAAUCCUCAGUGCCAGCAGGAAGCAGGUCAUCACCCUUACUUGCAUCAGCCAACAGAGGAUUGAGCAUCA
B14: 90371925_90372597_14501_CDS_ENSG00000112159_ENST00000369393|human|control|control (ssRNA)
RNA: GGGAGUUCUACAGUCCGACGAUCGUUGUCAUCUUUAGCAACAAGUUCAGAAUCUUCCUCAUCCAUUCCUGGUCCUGUUUCUUCAGUUUUAUUGUCUUCUUCCUCCUCAUCUUCCUCCUCAUCAUCAUCACCCCAAAGCCUCUCCAACAGAGGAUUGAGCAUCA
B15: chr9:114624755:114624756:+_ENSMUSG00000032435_ENSMUST00000047404|mus_mus|FALSE|FALSE (ssRNA)
RNA: GGGAGUUCUACAGUCCGACGAUCGAUGUCUUCAAAAUUAUCUUCUACUUUCAAAGUCUGAAAAUUUUCAUGUAAUAUUCCUAUUUUCUUAUCAUUAUCCCACCCUGCUGGAAUAAACACUGCGUCCUUCUCCACCACCACCGCCAACAGAGGAUUGAGCAUCA
B16: chr5:132409753:132409754:+_ENSG00000170606_ENST00000304858|hu_hu|FALSE|FALSE (ssRNA)
RNA: GGGAGUUCUACAGUCCGACGAUCUCUAUUAAAUGCACAUACAGAAACUUGAUAAGCAGAGUGGCCCAUGUCUACAAAAACUACAUUUCUUGGUUUCUCUUCUAAGGCAGGAAGAUCCUGCUUAUAGAUUCCAUAUGCAAGAGCCAACAGAGGAUUGAGCAUCA
B17: chr11:46405157:46405158:+_ENSG00000110492_ENST00000395566|hu_hu|hu_hu_hu_mus_False|18_58 (ssRNA)
RNA: GGGAGUUCUACAGUCCGACGAUCCCCUCCCCACUUUGGGCACUUGGUGUGGGCGUGAGAGGACAGGCGUGAUUGACAAAGCUAACGGGAAGACAAAAGGCACUGGUGGGUUAUAUCUCGGGCCUGGGGGAGAGGAGGGCUCCGCAACAGAGGAUUGAGCAUCA
B18: chr10:33214929:33214930:-_ENSG00000150093_ENST00000302278|hu_hu|hu_hu_hu_mus_True|78_98 (ssRNA)
RNA: GGGAGUUCUACAGUCCGACGAUCAACAAGUUCAUUGAAUACUUCUCCUCUGUCAGUAAGACUGAGCACAUUUUUGUAGCUAAAUGGGCUGGUGCAGUUUUGUUCACUUGUACAAGGAUUUCUUAGCUUUGCUGGGGUUGUGCUCAACAGAGGAUUGAGCAUCA
B19: chr1:60041781:60041782:+_ENSMUSG00000041040_ENSMUST00000036540|mus_hu|mus_mus_mus_hu_False|1_68 (ssRNA)
RNA: GGGAGUUCUACAGUCCGACGAUCAAGUUUACAAUAGUAAAGUAAAUGCAGUAGUGGCAAAUUUUCUUUACUUUAGUUUCACAAAAGAAAAUCUUUAUAACCCAGUCCUAGUCUUGGACAUAGUGAAAGCUAUAAAUGCCACUGCAACAGAGGAUUGAGCAUCA
B20: chr2:181324804:181324805:-_ENSMUSG00000000823_ENSMUST00000128553|mus_hu|FALSE|FALSE (ssRNA)
RNA: GGGAGUUCUACAGUCCGACGAUCGAUGGCACCCCCUUGGCACCGCUGGUAAUGGUACUUGAGCCCGUAGAUGCUGGGGAACUCCAGCCAGCACCCUGAGUUUGGACACUUCACCCUCGAGUGUGCCUUGAACUCAUCCUUCCACAACAGAGGAUUGAGCAUCA
B21: chr2:168009442:168009443:-_ENSMUSG00000051149_ENSMUST00000088001|mus_hu|FALSE|FALSE (ssRNA)
RNA: GGGAGUUCUACAGUCCGACGAUCGCGAUUACAGUAGAGGCAUUUGCUAGUAAAAUUGUGUAUUUUCAUAAUGUAGUUGGCUACUGCUGGGACUUUCUCAGCUUUAUGUUCUUUUUCGAAGUGCACACUAUAGACAUUUUCAGGCAACAGAGGAUUGAGCAUCA
B22: chr18:65375181:65375182:+_ENSMUSG00000024589_ENSMUST00000163516|mus_hu|FALSE|FALSE (ssRNA)
RNA: GGGAGUUCUACAGUCCGACGAUCGAGAACCGCAACAGGCAGUGUGUGAGCUCCGGCACGUACUUCUCAGCCUCAUGUAAGUGGCCCAUAAUAACUACAGCUUCAGCAGACAACUAAAGAGACUGCAUUAAGGUGAUUUCUCUGCAACAGAGGAUUGAGCAUCA

The list shows a part of the results.

This test concerns the target T1, UNK ZnF1-3. The experiment in a line: nsRBNS (natural sequence RNA bind-n-seq); RBNS binding buffer (assumed for nsRBNS): 25 mM Tris pH 7.5, 150 mM KCl, 3 mM MgCl2, 0.01% Triton X-100, 500 ug/ml BSA, 20 U/ml SUPERase-In, 4 C; UNK is unkempt and MSI1 is Musashi-1; names of the RNAs are library labels; protein concentration not given here; high values mean tight binding.
As for B1, the binding signal came to 0.718 enrichment R.
Take B2: the binding signal stood at 1.2 enrichment R.
With B3 the figure was 1.68 enrichment R.
Next, B4: 1.35 enrichment R; B5: 1.89 enrichment R; B6: 0.749 enrichment R.
B7 returned a binding signal of 0.775 enrichment R.
Next, B8: 1.1 enrichment R.
Next, B9: 0.592 enrichment R.
With B10 the figure was 1.05 enrichment R.
Regarding B11, the binding signal is 0.417 enrichment R.
Next, B12: 1.62 enrichment R; B13: 0.329 enrichment R; B14: 0.464 enrichment R.
With B15 the figure was 1.05 enrichment R.
In turn, B16 displayed a binding signal of 1.1 enrichment R.
Next, B17: 2.97 enrichment R.
With B18 the figure was 0.798 enrichment R; with B19, 0.57 enrichment R; with B20, 0.791 enrichment R.
With B21 the figure was 1.32 enrichment R.
In turn, B22 yielded a binding signal of 1.6 enrichment R.

(Values after PMC12136788.)
